Laboratory results: ChEMBL document CHEMBL4888484, “Replenishing the malaria drug discovery pipeline: Screening and hit evaluation of the MMV Hit Generation Library 1 (HGL1) against asexual blood stage Plasmodium falciparum ,using a nano luciferase reporter read-out” (2022)
Among all 150,000 compounds or so, about 540 (0.36%) showed an effect of 50% or more. The list shows a part of the results.

Each molecule was assayed on Plasmodium falciparum (assay: Primary screen in NF54 nanoGlo assay, in single point, at 2uM, 72h; a lower Z score goes with more inhibition). Conditions: timepoint 72 hour.
Assay type: functional, Erythrocyte

Structure (SMILES)	% Inhibition	Z score
Cc1oc2ncn(CCC(=O)N3CCCCCC3)c(=O)c2c1C	-16%	1.9
Cc1c(NCc2nc(CC(C)C)no2)cccc1N1CCOC1=O	2%	-0.2
COc1ccccc1-c1ccc(C(=O)NC2CCOCC2)nc1	-10%	1.97
COCCN(C)Cc1nc(C2(c3ccccc3)CC2)n[nH]1	-9%	1.51
Cc1ccc2[nH]cc(CCC(=O)N3CCOC[C@H]3C3CCC3)c2c1	-8%	1.57
O=C([C@H]1CCCN(c2nc3ccccc3[nH]2)C1)N1CCN(c2ccccc2)CC1	-8%	1.06
Cc1ccc2c(c1)C(=O)N(CC(=O)Nc1cnccc1C)C2=O	-8%	1.34
O=C1OCCN1Cc1nc(-c2ccco2)nn1Cc1ccc2c(c1)OCO2	-4%	0.7
CC(O)CC1COCCN1C(=O)NCCC1CCCC1 (stereo not given)	8%	-0.82
CN(CC1(C)CCOCC1)C(=O)CCC1CCCC1	0%	0.07
CC(C)(C)C1CNC(=O)C1C(=O)NCc1ccccn1 (stereo not given)	-3%	0.52
c1ccc(CN2CCN(Cc3cc(C4CC4)n[nH]3)CC2)cc1	-2%	0.34
CCN(C[C@H]1COc2ccccc2O1)C(=O)c1cc2n(n1)CCO2	-3%	0.45
CC1OCCC1C(=O)NC(C)(C)C1CCN(C(=O)C2CCOC2C)CC1 (stereo not given)	4%	-0.83
C[C@H]1CN(C(=O)Cn2cc(C(F)(F)F)ccc2=O)CCO1	-8%	1.45
N#Cc1ccc(S(=O)(=O)N(CC(F)(F)F)c2ccncc2)cn1	30%	-3.34
CCn1cc(S(=O)(=O)NCC2CCCCC2)cn1	-7%	0.98
O=C(O)c1ccc(CC(=O)N(C2CC2)[C@H]2CCc3ccccc32)cc1	-15%	1.53
CC(C)C[C@H](NC(=O)C(C)(C)C)C(=O)N(C)CCc1nccs1	-2%	0.25
O=C(O)[C@H]1CN(C(=O)C2CCCC2)C[C@@H]1c1ccc2c(c1)OCO2	-12%	2.34
CCCc1nnc(NCCc2c[nH]c3ccccc23)o1	2%	-0.29
O=C(Nc1cnccc1-n1ccnc1)c1cc(F)ccc1F	-8%	1.02
Cc1cnc(CC2CCN(C(=O)NC(C)C)CC2)n1Cc1ccc(F)cc1	-3%	0.39
CCc1ccc(S(=O)(=O)NC(c2cncc(OC)c2)[C@H]2C[C@H](O)C2)s1 (stereo not given in full)	-16%	1.96
CCOCCC1(Cn2nnnc2N2CC(CC)OC(CC)C2)CC1 (stereo not given)	-1%	0.11
Cc1cnc(C)c(-c2cccc(C(=O)NCCN3CCCOC3=O)c2)n1	-19%	2.05
O=C(c1ccsc1)N1CCN(c2cc(-n3cncn3)ncn2)CC1	-13%	2.09
O=C(C1CCN(c2ncnc3c2Cc2ccccc2OC3)CC1)N1CCCC1	-2%	0.38

Structure (SMILES)	% Inhibition	Z score
Cc1nc2c(s1)CCC[C@@H]2NC(=O)CN1CC(=O)NC1=O	-13%	2.17
COC[C@H]1CCN(Cc2ccc3c(c2)OCCO3)C1	6%	-0.79
COc1cc2ccc3c(CCN(C)C(=O)c4cc(OC)c5c(c4)OCCCO5)cc(OC)c(OC)c3c2cc1OC	7%	-0.9
Cc1cc(S(=O)(=O)N(C)CC#N)c(C)s1	-8%	1.2
Cc1ccccc1C(=O)N/C(=N/c1ccc(F)cc1)NCc1ccncc1	-10%	1.81
Cc1ccc(N(C)C(=O)C2=NN(C)C(=O)CC2)cc1	-10%	1.26
CCOc1cc(Br)ccc1S(=O)(=O)N(CC)CC	-6%	0.83
CC(C)CCCNC(=O)Nc1cc2n(n1)CCN(C)C2=O	-10%	1.99
CCOCC(=O)N1CCC[C@H](Oc2ccncc2)C1	6%	-0.86
CNC(=O)[C@H](Nc1nc(C)nc2ncccc12)c1ccccc1	-1%	0.08
CN(Cc1nccn1C)C(=O)c1cc2ccccc2[nH]1	41%	-5.32
CCc1c(C)sc2c1CCN(CC(=O)Nc1cc(C(F)(F)F)ccc1Cl)[C@@H]2c1ccccc1	-11%	1.12
O=S(=O)(c1ccc(F)c(Cl)c1)N1CCC[C@H](Cc2nc(C3CC3)no2)C1	19%	-2.47
COCC(=O)Nc1cc(C(=O)O)cc2nc(-c3cccnc3)n(C)c12	-2%	0.19
CCc1cnccc1-c1noc(C[C@H]2CCCCNC2=O)n1	6%	-1.18
Cc1ccn(CC(=O)Nc2ccnn2C2CCCC2)c(=O)c1	-18%	1.86
CN([C@](C)(C#N)Cn1cc(Br)cn1)S(=O)(=O)c1ccc2c(c1)CCCC2	1%	-0.1
Cn1cnnc1[C@@H]1CCCN1C(=O)Nc1ccc(F)c(C2CC2)c1	-10%	1.31
NC(=O)COc1ccc(S(=O)(=O)N2CCC(=C3CC3)CC2)cc1	-13%	1.53
Cc1noc2ncnc(N[C@@H](C)CN3CCN(c4ccccc4)CC3)c12	1%	-0.14
COc1cccc(CN2CCC[C@@]3(CCN(C(=O)Cc4ccccc4)C3)C2)c1OC	-10%	1.86
Cc1nc(C(C)NC(c2cccc(C(F)(F)F)c2)C2CC2)no1 (stereo not given)	-13%	1.48
Cc1n[nH]c(C)c1CC(C)C(=O)N1CCN(C(C#N)C(C)C)CC1 (stereo not given)	-9%	0.75
Cc1nc2cc(NC(=O)CCc3c[nH]c4ccccc34)ccc2[nH]1	2%	-0.31
O=C(Nc1nc(-c2ccc3c(c2)OCO3)cs1)c1ccc2c(c1)OCCO2	3%	-0.53
O=C(NCc1ccc(-c2nccs2)cc1)c1ccc2c(c1)OCO2	-13%	2.06
CN1C[C@H]2CC[C@@H](C1)N(Cc1ccccc1OCCN1CCCCC1)C2	-2%	0.49
